Measured values: patent US20240226225A1 (Protagonist Therapeutics, Inc., priority 2021, published 2024)
At least one structure is not confirmed: it was looked up by name or label, or the drawing left a doubt. Starred links: 1 amine or outer side, 2 acyl side, 3 side chain; linkers in the order of their positions; H or OH if unused. Positions of bridges follow the written chain, without caps; N, C: chain ends. Non-standard residues stand in square brackets, D forms with d. Residues, ends and D or L forms follow the SMILES beside them. Groups on a side chain read outwards from the residue. *: point of attachment. Ala(1H-tetrazol-5-yl) = N[C@@H](Cc1nnn[nH]1)C(=O)O; C18 diacid = O=C(O)CCCCCCCCCCCCCCCCC(=O)*; Dip = N[C@H](C(=O)O)C(c1ccccc1)c1ccccc1; γGlu = O=C(O)[C@H](CCC(=O)[*:2])N[*:1]; Hydrocinnamoyl = O=C(CCc1ccccc1)*; β3hF = N[C@H](CC(=O)O)Cc1ccccc1; Isovaleryl = CC(C)CC(=O)*; PhAc = O=C(Cc1ccccc1)*; AEEA = NCCOCCOCC(=O)O; Piv = CC(C)(C)C(=O)*

What was measured:
ferroportin [1] = molecular target: T1, ferroportin (Homo sapiens, UniProt Q9NP59); assay: FPN activity assay: internalization/degradation of ferroportin-GFP in stably transfected HEK293 cells, decrease in GFP fluorescence; format: cell-based; design: expressed in transfected cells; settings: HEK293 cells stably expressing ferroportin-GFP, at least 18 hours incubation; read-out: FPN EC50
T1 sequence (Q9NP59 1-571): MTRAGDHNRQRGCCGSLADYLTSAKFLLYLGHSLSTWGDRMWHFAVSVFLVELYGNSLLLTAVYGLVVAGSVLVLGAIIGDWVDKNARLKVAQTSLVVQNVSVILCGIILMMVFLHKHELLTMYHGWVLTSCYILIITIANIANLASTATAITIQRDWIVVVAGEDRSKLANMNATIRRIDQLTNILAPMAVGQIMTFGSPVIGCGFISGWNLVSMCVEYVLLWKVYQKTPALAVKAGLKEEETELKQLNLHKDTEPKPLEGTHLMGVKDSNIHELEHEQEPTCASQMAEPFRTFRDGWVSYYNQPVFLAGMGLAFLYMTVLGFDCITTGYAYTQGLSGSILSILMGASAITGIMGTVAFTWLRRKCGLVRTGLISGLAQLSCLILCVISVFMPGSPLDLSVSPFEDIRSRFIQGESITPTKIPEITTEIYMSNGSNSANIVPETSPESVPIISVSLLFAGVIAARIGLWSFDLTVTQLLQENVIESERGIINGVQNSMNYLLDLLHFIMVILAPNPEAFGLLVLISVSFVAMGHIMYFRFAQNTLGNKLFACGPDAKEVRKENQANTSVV

ferroportin [2] = molecular target: T1, ferroportin; assay: T47D cell-based ferroportin internalization assay in presence of 0.5% mouse serum albumin (MSA), AF647-conjugated detection peptide, flow cytometry; design: a human breast carcinoma adherent cell line which endogenously expresses ferroportin; host or cells: T47D; settings: T47D cells, 1 hr incubation
Method: The potency of the peptides in causing ferroportin internalization was evaluated in a T47D cell-based assay. […] In this internalization assay, the potency of the test peptides was evaluated in presence of serum albumin which is the main protein component in the blood. T47D cells were maintained in RPMI media (containing required amount of fetal bovine serum) and regularly sub-cultured. In preparation for the assay, the cells were seeded in 96-well plates at a density of 80-100 k cells per well in 100 ul volume and allowed to rest overnight. On the next day, test peptides were first prepared in dilution series (10-point series, starting concentration of ˜5 μM, typically 3-4×fold dilution steps), all with 0.5% mouse serum albumin (MSA purified from mouse serum; Sigma, A3139). The test peptide dilution series were allowed to incubate at room temperature for 30 min. Then the media was aspirated from the 96-well cell plate and test peptide dilution series were added. After 1 hr incubation, the media with test peptides was aspirated out and AF647-conjugated detection peptide was added at fixed concentration of 200 nM. The AF647-conjugated detection peptide was previously verified to bind to ferroportin and cause its internalization. The cells were washed again after a 2 hr incubation in preparation for flow cytometry analysis. The Median Fluorescence Intensity (MFI) of the AF647-positive population was measured (after removing dead cells and non-singlets from the analysis). The MFI values were used to generate a dose-response curve and obtain IC50 potencies for the test peptides. The IC50 potencies were calculated by using 4-parameter non-linear fitting function in Graphpad Prism (Table 2A).

| Structure (SMILES) | DC50 (ferroportin [1]) | IC50 (ferroportin [2]) |
| --- | --- | --- |
| CC[C@H](C)[C@@H]1NC(=O)[C@@H](NC(=O)[C@@H]2CCCN2C(=O)[C@@H](NC(=O)[C@H](Cc2c[nH]cn2)NC(=O)[C@@H](NC(=O)[C@H](Cc2nn[nH]n2)NC(=O)Cc2ccccc2)[C@@H](C)O)C(c2ccccc2)c2ccccc2)CSSC[C@@H](C(N)=O)NC(=O)[C@@H](CCCCN)NC(=O)C[C@H](Cc2ccccc2)NC(=O)[C@H](CCCCNC(=O)COCCOCCNC(=O)COCCOCCNC(=O)CC[C@H](NC(=O)CCCCCCCCCCCCCCCCC(=O)O)C(=O)O)NC1=O [Compd 43, 2Benzyl-[Tet1]-T-H-[Dpa]-P-[Cys]-I-[Lys(1PEG2_1PEG2_IsoGlu_C18_Diacid)]-[bhPhe]-[(D)Lys]-[Cys]-NH2] (PhAc-[Ala(1H-tetrazol-5-yl)]TH[Dip]PCIK([AEEA-AEEA-γGlu-C18 diacid])[β3hF][dK]C-NH2; disulfide 6-11) | 10 to 100 nM | 10 to 100 nM |
| CC[C@H](C)[C@@H]1NC(=O)[C@@H](NC(=O)[C@@H]2CCCN2C(=O)[C@@H](NC(=O)[C@H](Cc2c[nH]cn2)NC(=O)[C@@H](NC(=O)[C@H](Cc2nn[nH]n2)NC(=O)CCc2ccccc2)[C@@H](C)O)C(c2ccccc2)c2ccccc2)CSSC[C@@H](C(N)=O)NC(=O)[C@@H](CCCCN)NC(=O)C[C@H](Cc2ccccc2)NC(=O)[C@H](CCCCNC(=O)COCCOCCNC(=O)COCCOCCNC(=O)CC[C@H](NC(=O)CCCCCCCCCCCCCCCCC(=O)O)C(=O)O)NC1=O [Compd 44, 3Benzyl-[Tet1]-T-H-[Dpa]-P-[Cys]-I-[Lys(1PEG2_1PEG2_IsoGlu_C18_Diacid)]-[bhPhe]-[(D)Lys]-[Cys]-NH2] (Hydrocinnamoyl-[Ala(1H-tetrazol-5-yl)]TH[Dip]PCIK([AEEA-AEEA-γGlu-C18 diacid])[β3hF][dK]C-NH2; disulfide 6-11) | 10 to 100 nM | 100 to 500 nM |
| CC[C@H](C)[C@@H]1NC(=O)[C@@H](NC(=O)[C@@H]2CCCN2C(=O)[C@@H](NC(=O)[C@H](Cc2c[nH]cn2)NC(=O)[C@@H](NC(=O)[C@H](Cc2nn[nH]n2)NC(=O)C(C)(C)C)[C@@H](C)O)C(c2ccccc2)c2ccccc2)CSSC[C@@H](C(N)=O)NC(=O)[C@@H](CCCCN)NC(=O)C[C@H](Cc2ccccc2)NC(=O)[C@H](CCCCNC(=O)COCCOCCNC(=O)COCCOCCNC(=O)CC[C@H](NC(=O)CCCCCCCCCCCCCCCCC(=O)O)C(=O)O)NC1=O [Compd 48, tButyric_Acid-[Tet1]-T-H-[Dpa]-P-[Cys]-I-[Lys(1PEG2_1PEG2_IsoGlu_C18_Diacid)]-[bhPhe]-[(D)Lys]-[Cys]-NH2] (Piv-[Ala(1H-tetrazol-5-yl)]TH[Dip]PCIK([AEEA-AEEA-γGlu-C18 diacid])[β3hF][dK]C-NH2; disulfide 6-11) | 10 to 100 nM | 10 to 100 nM |
| CC[C@H](C)[C@@H]1NC(=O)[C@@H](NC(=O)[C@@H]2CCCN2C(=O)[C@@H](NC(=O)[C@H](Cc2c[nH]cn2)NC(=O)[C@@H](NC(=O)[C@H](Cc2nn[nH]n2)NC(=O)CC(C)C)[C@@H](C)O)C(c2ccccc2)c2ccccc2)CSSC[C@H](C(N)=O)NC(=O)[C@@H](CCCCN)NC(=O)C[C@H](Cc2ccccc2)NC(=O)[C@H](CCCCNC(=O)COCCOCCNC(=O)COCCOCCNC(=O)CC[C@H](NC(=O)CCCCCCCCCCCCCCCCC(=O)O)C(=O)O)NC1=O [Compd 33, Isovaleric Acid-[Tet1]-T-H-[Dpa]-P-[Cys]-I-[Lys(1PEG2_1PEG2_IsoGlu_C18_Diacid)]-[bhPhe]-[(D)Lys]-d[Cys]-NH2] (Isovaleryl-[Ala(1H-tetrazol-5-yl)]TH[Dip]PCIK([AEEA-AEEA-γGlu-C18 diacid])[β3hF][dK][dC]-NH2; disulfide 6-11) | 10 to 100 nM | 10 to 100 nM |
| CC[C@H](C)[C@@H]1NC(=O)[C@@H](NC(=O)[C@@H]2CCCN2C(=O)[C@@H](NC(=O)[C@H](Cc2c[nH]cn2)NC(=O)[C@@H](NC(=O)[C@H](Cc2nn[nH]n2)NC(=O)CC(C)C)[C@@H](C)O)C(c2ccccc2)c2ccccc2)CSSC[C@@H](C(N)=O)NC(=O)C[C@H](Cc2ccccc2)NC(=O)[C@H](CCCCNC(=O)COCCOCCNC(=O)COCCOCCNC(=O)CC[C@H](NC(=O)CCCCCCCCCCCCCCCCC(=O)O)C(=O)O)NC1=O [Compd 35, Isovaleric Acid-[Tet1]-T-H-[Dpa]-P-[Cys]-I-[Lys(1PEG2_1PEG2_IsoGlu_C18_Diacid)]-[bhPhe]-[Cys]-NH2] (Isovaleryl-[Ala(1H-tetrazol-5-yl)]TH[Dip]PCIK([AEEA-AEEA-γGlu-C18 diacid])[β3hF]C-NH2; disulfide 6-10) | 10 to 100 nM | 100 to 500 nM |
